# Measurements from the supplement of paper PMC10369915.
# The list shows a part of the results. Cut-off read from the data, not from the text of the source: active = 3.2 or more and inactive = the rest. Only a few entries rise above the background.
# B1: NUDT5_HUMAN_74 (peptide)
# chain: VLQRTLHYECIVLVK
# B2: NYAP2_HUMAN_268_YA (peptide)
# chain: DDQSEAVYEEMKAPI
# B3: OPRK_HUMAN_157 (peptide)
# chain: TMMSVDRYIAVCHPV
# B4: P2RX7_HUMAN_343 (peptide)
# chain: YIGSTLSYFGLAAVF
# B5: P85A_HUMAN_607 (peptide)
# chain: NENTEDQYSLVEDDE
# B6: PABP4_HUMAN_140 (peptide)
# chain: DENGSKGYAFVHFET
# B7: PACN1_HUMAN_394_YA (peptide)
# chain: GVRVRALYDADGQEQ
# B8: APBB1_HUMAN_547_YA (peptide)
# chain: VQKFQVAYLGNVPVA
# B9: PAK1_HUMAN_142 (peptide)
# chain: KTSNSQKYMSFTDKS
# B10: PAK1_HUMAN_153 (peptide)
# chain: TDKSAEDYNSSNALN
# B11: PARK2_HUMAN_143 (peptide)
# chain: SPAGRSIYNSFYVYC
# B12: PAXI_HUMAN_118 (peptide)
# chain: VGEEEHVYSFPNKQK
# B13: PB1_HUMAN_1289_YA (peptide)
# chain: KVVDDEIYAFRKPIV
# B14: PB1_HUMAN_134_YA (peptide)
# chain: AKPDSPEYKAACKLW
# B15: PDHA1_HUMAN_289_YA (peptide)
# chain: MELQTARYHGHSMSD
# B16: PDK2_HUMAN_216_YA (peptide)
# chain: KLLCDKAYMASPDLE
# B17: PDK3_HUMAN_212 (peptide)
# chain: KMLCEQYYLVAPELE
# B18: AQP1_HUMAN_253 (peptide)
# chain: TSGQVEEYDLDADDI
# Molecular target: SHP2 C-SH2 domain E139D
# Assay: enrichment score (SH2-bound / input frequency) (ratio); bacterial display of known human phosphotyrosine sites (pTyr-Var adds point mutants) read by sequencing; higher = stronger binding; tyrosines were phosphorylated by kinases first
# Conditions: peptide library: Human pTyr
# 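Note: displayed peptides selected on beads carrying the immobilized SH2 domain, with library peptides lacking any tyrosine serving as negative controls.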
row,Binder,enrichment score
1,B1,inactive: 1.96
2,B2,inactive: 0.958
3,B3,inactive: 1.61
4,B4,inactive: 2.48
5,B5,inactive: 1.11
6,B6,inactive: 2.97
7,B7,inactive: 1.07
8,B8,inactive: 1.18
9,B9,inactive: 1.6
10,B10,inactive: 0.651
11,B11,inactive: 2.71
12,B12,inactive: 0.834
13,B13,inactive: 0.946
14,B14,inactive: 1.14
15,B15,inactive: 0.64
16,B16,inactive: 1.02
17,B17,inactive: 1.38
18,B18,inactive: 1.73

# Molecular target: SHP2 C-SH2 domain wild-type
# Assay: as above
# Conditions: peptide library: Human pTyr
row,Binder,enrichment score
1,B1,inactive: 2.25
2,B2,inactive: 0.956
3,B3,inactive: 1.44
4,B4,inactive: 2.54
5,B5,inactive: 1.09
6,B6,active: 6.33
7,B7,inactive: 1.01
8,B8,inactive: 1.38
9,B9,inactive: 1.2
10,B10,inactive: 0.447
11,B11,inactive: 2.66
12,B12,inactive: 0.797
13,B13,inactive: 0.649
14,B14,inactive: 1.1
15,B15,inactive: 0.524
16,B16,inactive: 0.921
17,B17,inactive: 1.37
18,B18,inactive: 1.58

# Molecular target: SHP2 N-SH2 domain L43F
# Assay: as above
# Conditions: peptide library: Human pTyr
row,Binder,enrichment score
1,B1,inactive: 1.95
2,B2,inactive: 0.924
3,B3,inactive: 1.57
4,B4,inactive: 2.21
5,B5,inactive: 0.891
6,B6,active: 6.15
7,B7,inactive: 0.875
8,B8,inactive: 0.899
9,B9,inactive: 1.18
10,B10,inactive: 0.708
11,B11,inactive: 2.74
12,B12,inactive: 0.801
13,B13,inactive: 0.722
14,B14,inactive: 1.25
15,B15,inactive: 0.573
16,B16,inactive: 0.944
17,B17,inactive: 1.38
18,B18,inactive: 1.15

# Molecular target: SHP2 N-SH2 domain T42A
# Assay: as above
# Conditions: peptide library: Human pTyr
row,Binder,enrichment score
1,B1,inactive: 2.36
2,B2,inactive: 1.53
3,B3,inactive: 1.33
4,B4,inactive: 2.28
5,B5,inactive: 0.936
6,B6,active: 5.62
7,B7,inactive: 1.09
8,B8,inactive: 1
9,B9,inactive: 1.14
10,B10,inactive: 0.727
11,B11,inactive: 2.65
12,B12,inactive: 0.796
13,B13,inactive: 0.72
14,B14,inactive: 1.1
15,B15,inactive: 0.566
16,B16,inactive: 0.832
17,B17,inactive: 1.39
18,B18,inactive: 1.12

# Molecular target: SHP2 N-SH2 domain T52S
# Assay: as above
# Conditions: peptide library: Human pTyr
row,Binder,enrichment score
1,B1,inactive: 2.5
2,B2,inactive: 1.17
3,B3,inactive: 1.54
4,B4,active: 3.76
5,B5,inactive: 1.28
6,B6,active: 4.01
7,B7,inactive: 1.05
8,B8,inactive: 0.943
9,B9,inactive: 1.58
10,B10,inactive: 0.651
11,B11,inactive: 2.71
12,B12,inactive: 1.01
13,B13,inactive: 0.861
14,B14,inactive: 1.31
15,B15,inactive: 0.649
16,B16,inactive: 0.997
17,B17,inactive: 1.41
18,B18,inactive: 1.36

# Molecular target: SHP2 N-SH2 domain wild-type
# Assay: as above
# Conditions: peptide library: Human pTyr
row,Binder,enrichment score
1,B1,inactive: 2.79
2,B2,inactive: 1.27
3,B3,inactive: 1.7
4,B4,inactive: 2.89
5,B5,inactive: 1.39
6,B6,inactive: 1.31
7,B7,inactive: 1.09
8,B8,inactive: 1.06
9,B9,inactive: 1.32
10,B10,inactive: 0.601
11,B11,active: 3.34
12,B12,inactive: 0.841
13,B13,inactive: 0.733
14,B14,inactive: 1.19
15,B15,inactive: 0.624
16,B16,inactive: 1.04
17,B17,inactive: 1.72
18,B18,inactive: 1.57
